Test results as given in PMC8634136 (The EMBO Journal, 2021).

Experiments:
Test in all cases: cryo-EM structure; replisome reconstituted on fork DNA with AMP-PNP, isolated on a glycerol gradient with glutaraldehyde and BS3; 3.2 Å overall; a sample without CLASPIN solved at 3.4 Å
Settings in all cases: both partners purified
TIMELESS = target: T1, TIMELESS (human, UniProt Q9UNS1 1-1208)
T1 construct: Stood in the structure as a subunit of m3; residues 7-803 modelled (527-684 not visualised)
T1 sequence: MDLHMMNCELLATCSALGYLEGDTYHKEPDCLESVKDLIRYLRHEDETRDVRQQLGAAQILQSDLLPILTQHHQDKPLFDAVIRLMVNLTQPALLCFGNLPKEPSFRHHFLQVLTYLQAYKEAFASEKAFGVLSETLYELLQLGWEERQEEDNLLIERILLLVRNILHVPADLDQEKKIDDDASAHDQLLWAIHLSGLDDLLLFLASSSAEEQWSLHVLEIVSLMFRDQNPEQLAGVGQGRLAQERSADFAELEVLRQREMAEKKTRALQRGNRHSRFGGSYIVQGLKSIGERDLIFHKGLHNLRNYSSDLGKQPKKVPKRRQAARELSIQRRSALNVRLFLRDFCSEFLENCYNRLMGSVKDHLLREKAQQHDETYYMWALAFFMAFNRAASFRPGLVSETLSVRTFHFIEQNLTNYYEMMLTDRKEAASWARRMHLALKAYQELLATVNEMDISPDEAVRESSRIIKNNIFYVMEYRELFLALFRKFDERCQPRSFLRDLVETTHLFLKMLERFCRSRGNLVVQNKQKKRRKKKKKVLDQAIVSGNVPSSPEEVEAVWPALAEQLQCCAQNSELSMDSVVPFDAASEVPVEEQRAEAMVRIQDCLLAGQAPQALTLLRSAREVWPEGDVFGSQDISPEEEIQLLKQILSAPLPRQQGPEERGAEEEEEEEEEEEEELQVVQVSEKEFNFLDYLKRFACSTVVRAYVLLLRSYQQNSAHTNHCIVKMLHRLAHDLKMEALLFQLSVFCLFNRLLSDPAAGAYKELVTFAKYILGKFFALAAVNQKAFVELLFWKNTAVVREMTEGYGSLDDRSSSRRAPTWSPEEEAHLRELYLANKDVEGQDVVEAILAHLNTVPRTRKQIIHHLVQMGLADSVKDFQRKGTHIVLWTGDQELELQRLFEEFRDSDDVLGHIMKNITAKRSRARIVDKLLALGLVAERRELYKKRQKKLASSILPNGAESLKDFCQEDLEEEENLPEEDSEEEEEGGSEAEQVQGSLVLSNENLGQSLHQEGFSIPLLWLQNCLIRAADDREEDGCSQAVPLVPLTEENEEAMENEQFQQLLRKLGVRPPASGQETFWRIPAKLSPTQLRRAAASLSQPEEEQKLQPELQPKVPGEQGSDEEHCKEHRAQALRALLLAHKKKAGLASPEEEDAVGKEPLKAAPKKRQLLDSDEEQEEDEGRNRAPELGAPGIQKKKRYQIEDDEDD

POLE1 = target: T2, POLE1 (human, UniProt Q07864 1-2286)
T2 construct: POLE1, catalytic subunit of Pol ε, human; Stood in the structure as a subunit of m2; residues 1,371-2,280 modelled; also called POLE1 catalytic subunit; POLE1^nonCat (the modelled C-terminal non-catalytic domain); source: Hi5 insect cells, purified as a subunit of Pol ε

CLASPIN = target: T3, CLASPIN (human, UniProt Q9HAW4)
T3 construct: CLASPIN, human; Only residues 284-319, 525-540 and 592-618 are modelled in the structure; source: Hi5 insect cells (baculovirus), purified (Flag M2, Superose 6)

Measured: binding result

B1: MCM2 (natural protein)
chain: not shown
notes: MCM2, human; Stood in the structure as a subunit of m1; source: Hi5 insect cells, purified as a subunit of hsCMG
binds: all assays above
